Experimental data reported in US20230078173A1 (ELIXIRON IMMUNOTHERAPEUTICS HONG KONG, published 2023).

Legend:
[1] = target: T1, recombinant cynomolgus PD-L1 (cynomolgus monkey, UniProt Q9NZQ7 partial chain (human entry)); experiment: ELISA, cynomolgus PD-L1 immobilised (1 µg/mL)
T1 construct: also called cynoPD-L1; Cynomolgus PD-L1.ECD

[2] = target: T2, recombinant human PD-L1-mFc fusion protein (human, UniProt Q9NZQ7 partial chain); experiment: ELISA, human PD-L1-mFc immobilised (1 µg/mL), anti-human kappa-HRP detection
T2 construct: also called hPD-L1; huPD-L1

[3] = target: T2, recombinant human PD-L1-mFc fusion …; experiment: competition ELISA, PD-L1 immobilised, competitor biotin-PD-1-Fc (30 µg/mL)
[4] = target: T3, IL10Rα-Fc fusion protein (human, UniProt Q13651 22-235); experiment: ELISA, IL10Rα-Fc immobilised (1 µg/mL)
T3 construct: Bought from R&D Systems; also called human IL10Rα
T3 sequence (looked up): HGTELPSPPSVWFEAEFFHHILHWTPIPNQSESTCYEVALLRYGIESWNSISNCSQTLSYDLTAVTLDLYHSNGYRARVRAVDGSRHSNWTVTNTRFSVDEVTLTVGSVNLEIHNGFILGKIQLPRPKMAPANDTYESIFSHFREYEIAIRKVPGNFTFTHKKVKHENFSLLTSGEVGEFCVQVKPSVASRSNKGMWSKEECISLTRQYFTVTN

EC50 [1]: 0.187 nM
EC50 [2]: 0.0525 nM
IC50 [3]: 0.083 nM
B1: PHS206 (antibody, human IgG1, kappa)
heavy: EVQLVESGGGLVQPGGSLRLSCAASGFTISDFGIHWVRQAPGKGLEWVAGISPDSGNTNYADSVKGRFTISADTSKNTAYLQMNSLRAEDTAVYFCARTFFRRSLDYWGQGTLVTVSSASTKGPSVFPLAPSSKSTSGGTAALGCLVKDYFPEPVTVSWNSGALTSGVHTFPAVLQSSGLYSLSSVVTVPSSSLGTQTYICNVNHKPSNTKVDKKV[letters of human IgG1 Fc with changes left out]
light: DIQMTQSPSSLSASVGDRVTITCRASQDVSSGVAWYQQKPGKAPKLLISFANYLYSGVPSRFSGSGSGTDFTLTISSLQPEDFATYYCQQGSNLPFTFGQGTKVEIKRTVAAPSVFIFPPSDEQLKSGTASVVCLLNNFYPREAKVQWKVDNALQSGNSQESVTEQDSKDSTYSLSSTLTLSKADYEKHKVYACEVTHQGLSSPVTKSFNRGEC

EC50 [4]: 61.9 nM
EC50 [2]: 0.0629 nM
IC50 [3]: 0.116 nM
B2: PHS206/IL10 (antibody, human IgG1, kappa)
heavy: EVQLVESGGGLVQPGGSLRLSCAASGFTISDFGIHWVRQAPGKGLEWVAGISPDSGNTNYADSVKGRFTISADTSKNTAYLQMNSLRAEDTAVYFCARTFFRRSLDYWGQGTLVTVSSASTKGPSVFPLAPSSKSTSGGTAALGCLVKDYFPEPVTVSWNSGALTSGVHTFPAVLQSSGLYSLSSVVTVPSSSLGTQTYICNVNHKPSNTKVDKKV[letters of human IgG1 Fc with changes left out]LGGGGSGGGGSGGGGSPGQGTQSENSCTHFPGNLPNMLRDLRDAFSRVKTFFQMKDQLDNLLLKESLLEDFKGYLGCQALSEMIQFYLEEVMPQAENQDPDIKAHVNSLGENLKTLRLRLRRCHRFLPCENKSKAVEQVKNAFNKLQEKGIYKAMSEFDIFINYIEAYMTMKIRN
light: B1 light

One block for each binder: values may come before it.
